Laboratory results from PubChem BioAssay AID485364 (National Center for Advancing Translational Sciences (NCATS), 2010).
The campaign covered roughly 360,000 compounds. About 11,000 (3.1%) were called active. The inconclusive results got no clear call from the source; some entries with a clear call stand among them for comparison. Calls follow the shape of the dose curve; as a rule, active = well fitted inhibition curve with a large enough effect; inconclusive = small, poorly fitted or top-dose-only effect; inactive = no such curve, though single readings can be large or run the other way. No potency is given beside an inconclusive call; the fits are too rough.

target: Schistosoma mansoni thioredoxin glutathione reductase (TGR) (UniProt Q962Y6); assay: qHTS Assay for the Inhibitors of Schistosoma Mansoni Peroxiredoxins; conditions: purified TGR, DTNB reduction, TNB absorbance 405 nm; activity change, negative = inhibition: at 114 µM (top of the series) unless noted; also: nearly all actives have a fitted effect of over 60% in size
Summary of the method: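 Kinetic colorimetric format: TGR-catalysed, NADPH-driven DTNB reduction monitored via TNB absorbance. Enzyme dispensed at 20 nM; compound exposure 15 min at room temperature before reaction start.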
% is scaled to controls: 0 for no effect and ±100 for the full control effect; potency is read from the fitted curve at half-maximal effect; tags tell the direction and shape of the fitted curve.

SMILES	Potency	activity change, negative = inhibition
O=C1C=C(Nc2ccccc2C(=O)O)c2ccccc2C1=O	inconclusive [inhibitor, single point]	–
CC(=O)n1cc([C@H]2C=C(C(=O)O)O[C@@H](OCCCCO)C2)c2ccccc21	inconclusive [inhibitor, partial curve]	–
O=C(CCC(=O)Nc1ccccc1)N/N=C/c1ccco1	inconclusive [inhibitor, full curve]	–
CN(C)c1ccc(/C=N/NC(=O)CNC(=O)/C=C/c2ccco2)cc1	inconclusive [inhibitor, full curve, poor fit]	–
Cc1ccccc1CN1CCNC(=O)C1CC(=O)N(C)CCC1CCOCC1 (configuration not stated)	inconclusive [inhibitor, partial curve]	–
CC(OC(=O)c1ccc(S(=O)(=O)NCc2ccco2)cc1)C(=O)Nc1ncc(Cl)cc1Cl (configuration not stated)	inconclusive [inhibitor, partial curve]	–
CCOC(=O)/C(=C/c1ccc(OC(=O)c2ccccc2)cc1)C(C)=O	inconclusive [inhibitor, full curve]	–
CCN(CC(=O)Nc1ccc(NC(C)=O)cc1)C(=O)/C=C/c1ccc([N+](=O)[O-])cc1	–	inactive: 3.56%
CC(=O)Nc1cccc(C(=O)/C=C/c2ccc(F)cc2)c1	inconclusive [inhibitor, full curve, poor fit]	–
Cc1c(C(=O)NCc2ccccc2Cl)sc2nc3n(c(=O)c12)CCCC3	–	inactive: 5.74%
O=C(O)c1cccc(N2C(=O)c3cc([N+](=O)[O-])cc4cc([N+](=O)[O-])cc(c34)C2=O)c1	active: 2 µM	–
CSc1oc(-c2ccco2)nc1S(=O)(=O)c1ccc(F)cc1	active: 44.7 µM	–
COc1cccc(CNC(=O)c2ccc(-c3nc(CS(=O)c4ccccc4)c(C)o3)cc2)c1 (configuration not stated)	inconclusive [inhibitor, partial curve]	–
O=S(=O)(Cc1cc(Cl)nc(-c2ccncc2)n1)c1ccccc1	inconclusive [inhibitor, full curve]	–
CCc1ccccc1NC(=O)N1C2CCCC1CC(NC(=O)C(C)(C)C)C2 (configuration not stated)	inconclusive [inhibitor, single point]	–
COc1cccc(C(=O)Nc2ccc(Oc3cccc(C(F)(F)F)c3)nc2)c1	–	inactive: 0.114%
CCN(CC)S(=O)(=O)c1ccc(/C=C/C(=O)Nc2ccc(Br)cc2F)cc1	–	inactive: -3.86%
N#CC1=C(N)Oc2n[nH]c(-c3cccs3)c2C1c1ccoc1 (configuration not stated)	inconclusive [inhibitor, partial curve]	–
CCc1ccc(S(=O)(=O)/N=C2\C=C(NS(=O)(=O)c3ccccc3)C(=O)c3ccccc32)cc1	inconclusive [inhibitor, partial curve]	–
O=C1CC(C(=O)N2CCC(N3CCC(C(=O)NC4CC4)CC3)CC2)c2ccccc21 (configuration not stated)	active: 39.8 µM	–
N#CC1=C(SCC(=O)NCc2ccccc2)NC(=O)CC1c1ccco1 (configuration not stated)	active: 39.8 µM	–

SMILES	Potency	activity change, negative = inhibition
Cc1cc(NC(=O)CCc2ccc(C)o2)no1	inconclusive [inhibitor, partial curve]	–
CC(NC(=O)Cn1c(=O)oc2cc(S(=O)(=O)N3CCCC3)ccc21)c1ccccc1 (configuration not stated)	inconclusive [inhibitor, single point]	–
COC(=O)C1=C(C)N(C)C(C)=C(C(=O)OC)C1c1ccsc1	inconclusive [inhibitor, single point]	–
CN(C)CCCNC(=O)c1ccc(-c2ccccc2)cc1	inconclusive [inhibitor, single point]	–
CCOc1ccc2[nH]c(=O)c(C(c3nnnn3CC3CCCO3)N3CCc4ccccc4C3)cc2c1 (configuration not stated)	inconclusive [inhibitor, partial curve]	–
CCCCOc1ccc(-c2nnc(-c3ccco3)o2)cc1	inconclusive [inhibitor, full curve, poor fit]	–
O=C(NCc1ccco1)C1CC(c2cccc([N+](=O)[O-])c2)=NO1 (configuration not stated)	inconclusive [inhibitor, partial curve]	–
CC(=O)Nc1ccc(-c2cc(C(=O)O)c3ccc(C)cc3n2)cc1	inconclusive [inhibitor, partial curve]	–
CNC(=O)COC(=O)/C=C/c1cn(-c2ccccc2)nc1-c1ccc(C)o1	inconclusive [inhibitor, full curve, poor fit]	–
C/C=C/C=C/C(=O)OCC(=O)Nc1ccc(Cl)cc1	inconclusive [inhibitor, full curve]	–
Cc1cc(C)n(-c2ccc(NC(=O)C3CCN(Cc4cc(C)c(C)o4)CC3)cc2)n1	inconclusive [inhibitor, partial curve]	–
O=C(O)/C=C/c1ccc(O)c(O)c1	inconclusive [inhibitor, partial curve]	–
N#Cc1c(NC(=S)NC(=O)c2ccccc2)sc2c1CCC2	active: 3.98 µM	–
O=C(Nc1ccc(Cl)cn1)Nc1ccccc1Cl	–	inactive: 0.798%
CCCc1nn(C)c2c(=O)[nH]c(-c3cc(S(=O)(=O)Nc4ccc(NC(C)=O)cc4)ccc3OCC)nc12	–	inactive: 6.08%
CC(=O)Nc1cccc(NC(=S)Nc2cccc(Cl)c2C)c1	inconclusive [inhibitor, partial curve]	–
COc1ccccc1/C=C/c1nc2ccc(OC(C)=O)cc2c(=O)o1	inconclusive [inhibitor, full curve, poor fit]	–
CN(C)S(=O)(=O)c1ccc(C(=O)N2CCN(C(=O)C3CCCO3)CC2)cc1 (configuration not stated)	inconclusive [inhibitor, partial curve, poor fit]	–
C=CC(O)(C#CCN(CC)CC)c1ccccc1 (configuration not stated)	active: 44.7 µM	–
CCOC(=O)/C(=C\c1cn(C)c2ccccc12)[N+](=O)[O-]	inconclusive [inhibitor, partial curve]	–
O=C(C1=C[C@H](c2csc3ccccc23)C[C@H](OCCCCO)O1)N1CCOCC1	inconclusive [inhibitor, partial curve]	–
